# Results reported in PMC4336329 (PLoS ONE, 2015).
# The campaign covered roughly 310,000 compounds. About 14,000 (4.5%) showed an effect of 50% or more. Effects have a minus sign here. Some of the results follow.
# Biological target: human ether-à-go-go-related gene (hERG) potassium channel (human, UniProt Q12809)
# Assay: primary screen, population patch clamp on CHO cells stably expressing hERG
# 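Further: peak tail current of the secondary pulse compared with the same well before compound.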
# Sequence of human ether-à-go-go-related gene (hERG) potassium channel (Q12809 whole entry, looked up): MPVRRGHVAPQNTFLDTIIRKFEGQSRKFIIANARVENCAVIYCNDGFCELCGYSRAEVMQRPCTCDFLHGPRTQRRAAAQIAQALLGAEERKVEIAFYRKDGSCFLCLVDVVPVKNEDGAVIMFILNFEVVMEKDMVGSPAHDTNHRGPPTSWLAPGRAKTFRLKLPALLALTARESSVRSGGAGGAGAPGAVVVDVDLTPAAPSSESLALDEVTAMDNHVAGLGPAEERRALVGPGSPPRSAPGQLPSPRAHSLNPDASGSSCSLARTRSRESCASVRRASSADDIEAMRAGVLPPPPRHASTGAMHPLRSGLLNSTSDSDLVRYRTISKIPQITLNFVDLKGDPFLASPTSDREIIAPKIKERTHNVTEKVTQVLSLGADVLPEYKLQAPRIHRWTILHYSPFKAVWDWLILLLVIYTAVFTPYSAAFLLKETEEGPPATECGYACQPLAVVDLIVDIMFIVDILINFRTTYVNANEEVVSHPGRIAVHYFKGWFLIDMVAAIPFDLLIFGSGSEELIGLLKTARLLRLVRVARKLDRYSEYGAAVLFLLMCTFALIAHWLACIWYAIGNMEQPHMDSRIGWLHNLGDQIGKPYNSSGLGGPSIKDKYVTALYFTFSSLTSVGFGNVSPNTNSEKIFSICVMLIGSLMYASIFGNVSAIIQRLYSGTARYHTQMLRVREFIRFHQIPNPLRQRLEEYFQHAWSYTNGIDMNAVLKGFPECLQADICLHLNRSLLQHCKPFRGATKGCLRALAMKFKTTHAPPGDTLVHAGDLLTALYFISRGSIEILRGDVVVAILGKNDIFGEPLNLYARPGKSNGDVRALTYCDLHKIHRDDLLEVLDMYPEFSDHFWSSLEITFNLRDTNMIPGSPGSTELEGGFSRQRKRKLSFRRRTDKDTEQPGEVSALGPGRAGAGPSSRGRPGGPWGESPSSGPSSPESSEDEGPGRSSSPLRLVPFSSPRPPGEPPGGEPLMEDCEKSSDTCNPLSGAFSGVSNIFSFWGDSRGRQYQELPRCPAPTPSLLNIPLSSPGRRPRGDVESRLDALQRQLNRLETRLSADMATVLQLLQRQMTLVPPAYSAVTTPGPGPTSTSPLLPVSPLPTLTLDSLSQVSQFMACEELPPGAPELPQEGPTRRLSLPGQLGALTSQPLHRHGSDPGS
row,SMILES,"hERG current change (%, negative = inhibition) at 10uM [%]"
1,CCCN1CCN(c2nc(-c3cccs3)nc3ccccc23)CC1,-68.6
2,Cc1nc(-c2cc(-c3ccc(Cl)cc3)no2)cs1,5.86
3,CC(=O)c1c(C)[nH]c(C(=O)OCC(=O)NCCc2ccc(Cl)cc2)c1C,-24.3
4,COC(=O)Cn1c(=NC(=O)c2sc3ccccc3c2Cl)sc2cc(S(N)(=O)=O)ccc21,8.01
5,COCCN1CCN(Cc2cn(C)nc2-c2cccc(Cl)c2)CC1,-15.7
6,CCn1c(C2CC(=O)N(Cc3ccccc3)C2)nc2ccccc21 (stereo not shown),-12.5
7,COc1cccc(NC(=O)COC(=O)C2CCN(S(=O)(=O)c3cccs3)CC2)c1,-47.9
8,Cc1cccc(NC(=O)C2CCCN(S(=O)(=O)c3ccc4[nH]c(=O)ccc4c3)C2)n1 (stereo not shown),-34.8
9,Cc1c(Cl)cccc1NC(=O)CCCCCN1C(=O)CCC1=O,17.2
10,O=C(O)COc1ccccc1/C=N/NC(=O)CN1CCN(S(=O)(=O)c2ccc(Br)cc2)CC1,4.89
11,C=CCN(CC=C)C(=O)CCc1nnc(CCc2c[nH]c3ccccc23)o1,15.7
12,CN(C)C=O.COc1ccccc1CNC(=O)COC(=O)c1ccc(NC(N)=O)cc1,15.7
13,Cc1cc(Br)cc(Br)c1OCC(=O)NNC(=O)c1ccoc1C,7.4
14,CN1CCN(S(=O)(=O)c2ccc(NC(=S)NC(=O)C3CC3)cc2)CC1,-17.5
15,CCc1ccc(NC(=O)CS(=O)CC(=O)NCCCc2ccccc2)cc1 (stereo not shown),-4.52
16,CC(C)[C@@]1(c2ccccc2)ON(c2ccccc2C(F)(F)F)C1=O,-6.16
17,COc1ccc(N(CC2CO2)S(=O)(=O)c2ccccc2)cc1 (stereo not shown),10.8
18,CC(C)(C)C(=O)Nc1nc2c(s1)CN(Cc1ccccc1)CC2,14.2
19,COc1ccccc1NC(=O)Cn1cnc2sc(C(=O)Nc3cc(OC)c(OC)c(OC)c3)c(C)c2c1=O,27.8
20,CC(C)(C)OC(=O)NCC(=O)N1CCC(C(=O)O)CC1,18.3
21,COC(=O)c1ccc(C(C(=O)NC2CCCCC2)N(CCc2ccccc2)C(=O)Cc2cccs2)cc1 (stereo not shown),3.83
22,OC(COC(c1ccc(F)cc1)c1ccc(F)cc1)CN1CCc2ccccc2C1 (stereo not shown),-73.7

row,SMILES,"hERG current change (%, negative = inhibition) at 10uM [%]"
1,O=C(N/N=C/c1ccc2c(c1)OCO2)c1ccc2c(c1)OCCO2,10.8
2,CC(=O)Nc1c(C(=O)O)[nH]c2ccccc12,12.7
3,CN(C)/C=C/C(=O)c1ccc2noc(-c3ccc(F)cc3)c2c1,-9.41
4,Cc1ccc2c(c1)C1CN(C)CCC1N2C(=O)c1ccccc1NS(=O)(=O)c1ccc(F)cc1C.Cl (stereo not shown),-17.4
5,Cc1ccc(Cn2c(C(CO)Nc3nc(-c4ccc(F)cc4)cs3)nc3ccccc32)cc1 (stereo not shown),15.4
6,Cc1cc(C(=O)COc2ccc3ccc(=O)oc3c2)c(C)n1Cc1cccs1,-4.97
7,O=C(Cn1cnc2c(nnn2Cc2ccc(F)cc2)c1=O)Nc1ccc2c(c1)OCCO2,-27.2
8,COc1ccc(Cl)cc1NC(=O)CN(C)CC(=O)Nc1cc(OC)c(OC)c(OC)c1,-8.72
9,CC(=O)N=C1SC2CS(=O)(=O)CC2N1c1cccc(Cl)c1Cl (stereo not shown),-0.645
10,CCOC(=O)c1cccc(P(=O)(C(C)(C)C)C(C)(C)C)c1,17.1
11,Cc1cccc(N2CCN(C(=O)CCn3c(=O)[nH]c4ccccc4c3=O)CC2)c1C,-8.4
12,Cc1ccc(NC(=O)c2cnccn2)c(OC(F)F)c1,4.64
13,CCc1[nH]nc2c1C(c1ccncc1)C(C#N)=C(N)O2 (stereo not shown),12.3
14,Cn1c(SCCc2ccc([N+](=O)[O-])cc2)nccc1=O,-59.9
15,CCn1c(SCC(=O)NCC2CCCO2)nnc1-c1ccccc1OC (stereo not shown),10.9
16,Cc1cc(-c2ccc(S(=O)(=O)Nc3ccc(C#N)cc3)s2)on1,12
17,CC(C)[C@H](NC(=O)N1CCn2c1nc1ccccc12)C(=O)NCc1ccc(F)cc1,3.68
18,C=C(C)C1Cc2c(C)nn(-c3ccccn3)c2C1 (stereo not shown),11
19,O=[N+]([O-])c1ccccc1S(=O)(=O)Nc1cccc2cccnc12,0.351
20,CN(C)c1nc(N)nc(CSc2ccccn2)n1,11.8
21,Cc1ccc(OCc2nnc(SCC(=O)Nc3cccc4ccccc34)n2-c2ccccc2)cc1,17.3
22,CC(=O)c1ccc(Oc2cc(C)nc(NCc3ccccc3)n2)cc1,-1.25

row,SMILES,"hERG current change (%, negative = inhibition) at 10uM [%]"
1,COc1ccc(/C=N/NC(=O)c2ccc3c(c2)OCCO3)cc1[N+](=O)[O-],16
2,Cc1ccc(C(=O)N(C)CCOc2ccccc2)cc1S(=O)(=O)N1CCCCC1,-51.4
3,Nc1ccc(-c2nc3cc(N)ccc3o2)cc1,-6.14
4,Cc1cc2c(cc1S(=O)(=O)Nc1cccc(F)c1)n(C)c(=O)c(=O)n2C,-10.9
5,CC(C)CNc1nc(Oc2ccc(=O)n(-c3ccccc3)n2)nc(N2CCOCC2)n1,-1.97
6,O=C(CNC(=O)c1ccccc1)N/N=C/c1cn[nH]c1-c1ccccc1,16.4
7,CC(C)COP(=O)(OCC(C)C)C(O)c1ccc2c(c1)OCO2 (stereo not shown),8.62
8,CC1Sc2ccc(S(=O)(=O)N3CCN(c4ccccc4)CC3)cc2NC1=O (stereo not shown),0.591
9,O=C(CSc1ncn[nH]1)NCc1ccccc1Cl,14.9
10,CCS(=O)(=O)N1CCC(C(=O)O)CC1,33.7
11,O=C(O)c1ccccc1Nc1cccc(OCc2ccc3ccccc3n2)c1,14.1
12,CC(=O)N1CCN(c2ccc(NC(=O)c3ccc([N+](=O)[O-])cc3)cc2)CC1,1.37
13,CCOc1ccc(-c2c[n+](=O)c3c(n2[O-])CCCC3)c(OCC)c1,-1.28
14,COC(=O)c1c[nH]c(=O)c2ccccc12,30.9
15,CCOc1ccc(S(=O)(=O)N2CCC(C(=O)NCc3ccco3)CC2)cc1,-53
16,Cc1ccc(/C=N/N2CCN(Cc3ccccc3)CC2)cc1,-17.7
17,COCCOc1cc(N(CC(=O)N(C)C)S(=O)(=O)c2ccccc2)c(Cl)cc1Cl,-1.63
18,COc1ccc(CN2CCC(=O)N([C@H](CO)Cc3ccccc3)CC2)cc1,-2.16
19,c1ccc(CCNCCOc2ccccc2)cc1,-0.101
20,CC(/C=N/n1c(-c2ccncc2)n[nH]c1=S)=C\c1ccco1,20.5
21,CCOC(=O)c1c(C)sc(Sc2ccc(Cl)cc2[N+](=O)[O-])c1OC,11.3
22,CCOCCc1nnc(NC(=O)c2cc(OC)c(OC)cc2[N+](=O)[O-])s1,22.8

row,SMILES,"hERG current change (%, negative = inhibition) at 10uM [%]"
1,Cc1ccc(NC(=O)CN(C)C(=O)C(c2ccccc2)c2ccccc2)cc1,-16.6
2,CCCOP(=O)(c1ccc(N(C)C)cc1)C(O)c1ccc(N(C)C)cc1 (stereo not shown),12.8
3,COc1ccc(-c2c(NC(=O)c3ccco3)n(-c3ccc(C)cc3)nc(C)c2=O)cc1,18.2
4,CC(C)Cn1c(N)c(/C=N/NC(=O)c2ccc(Cl)cc2)c(=O)n(C)c1=O,28.6
5,COC(=O)C(Nc1ccccc1Cl)(c1cc(C)c(O)c(C)c1)C(F)(F)F (stereo not shown),-3.48
6,CC(C)c1nnc(NC(=O)CCC(=O)Nc2ccc(Cl)cc2)s1,17.2
7,CC(C)(C)c1ccc(C(CC(=O)O)NC(=O)C23CC4CC(CC(C4)C2)C3)cc1 (stereo not shown),17.7
8,N#Cc1c(SCC(=O)Nc2ccc(C(F)(F)F)cc2)sc2c(O)cc(=O)[nH]c12,18.9
9,CCCC(CCC(=O)NC1CCCCC1)C(=O)O (stereo not shown),-0.0608
10,CS(=O)(=O)Nc1nnc(CCc2ccccc2)s1,19.6
11,CC(C)N(C)NC(=S)Nc1ccccc1,25.1
12,CC1C(=O)CC(c2ccccc2)NC1c1ccccc1 (stereo not shown),-7.08
13,O=C(C1=C[C@@H](c2ccc3c(c2)OCO3)C[C@@H](OCc2ccc(CO)cc2)O1)N1CCOCC1,-11.1
14,Cc1nn(C)c(C)c1S(=O)(=O)N1CCCC(C(=O)NC2CCCCC2)C1 (stereo not shown),-5.2
15,C/C(N)=C(/C#N)C(=O)COC(=O)C1=NN(c2ccccc2)C(=O)CC1,20.3
16,C/C(CCc1ccccc1)=N\NC(=O)C1C2CCCCC21 (stereo not shown),-0.194
17,CC(C)(C)CC(=O)Nc1nnc(SCC(=O)NC2CCCC2)s1,8.3
18,CC(=O)Nc1nc(COc2ccc3ccccc3c2)cs1,22.4
19,Cc1nc(SCC(=O)Nc2cc(C(N)=O)cc(C(N)=O)c2)c2c(C)c(C)sc2n1,13.9
20,CCN(Cc1ccccc1)S(=O)(=O)c1nc2nc(C)c(C)c(C)n2n1,-11.3
21,O=C(CSc1nnc(COc2ccc(Cl)cc2)o1)N1CCN(c2ccccc2)CC1,-1.37
22,O=C/C(=C\Nc1ccccn1)c1nc2ccccc2o1,-18.8
